Measured values from the BET-seq Pho4 binding data (Le et al. 2018).
This is one part of the list. Values were computed here from the reads of four pooled replicates and scatter widely.

Biological target: T1, Pho4 (S. cerevisiae) (UniProt P07270)
T1 sequence: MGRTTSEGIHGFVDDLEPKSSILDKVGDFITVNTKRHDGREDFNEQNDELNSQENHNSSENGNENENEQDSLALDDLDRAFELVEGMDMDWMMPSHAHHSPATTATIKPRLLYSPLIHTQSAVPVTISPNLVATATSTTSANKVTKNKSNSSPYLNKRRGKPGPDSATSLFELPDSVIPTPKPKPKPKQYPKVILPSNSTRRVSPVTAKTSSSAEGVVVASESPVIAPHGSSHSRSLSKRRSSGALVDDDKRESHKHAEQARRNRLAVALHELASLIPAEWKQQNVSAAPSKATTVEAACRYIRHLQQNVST
Assay: relative binding free energy (BET-seq); higher = weaker binding
Settings: reference: library average

Row | Sequence | relative binding free energy [kcal/mol]
1 | TAGTCCACGTGGCGGT | -0.1
2 | AGCATCACGTGGGGTT | 0.06
3 | TTAGGCACGTGGGACG | -0.24
4 | TAAGTCACGTGGTTGA | 0.02
5 | TATGTCACGTGGATGC | 0.2
6 | GCGGGCACGTGTTGTA | -0.16
7 | GTTGGCACGTGCGAGA | 0.04
8 | GTTGGCACGTGGGAGT | -0.06
9 | GGTAGCACGTGTGCTG | -0.09
10 | TGGGGCACGTGTGACT | -0.09
11 | TGTGCCACGTGTTGTT | -0.06
12 | GGGGCCACGTGTGGAA | 0.02
13 | ATTGTCACGTGGTTAG | 0.12
14 | TAGTTCACGTGAGGAC | 0.37
15 | GGCTTCACGTGGTGCT | 0.32
16 | ATCAGCACGTGAGGTT | 0.18
17 | AGTGGCACGTGCATGC | -0.21
18 | GTGGGCACGTGAGGAA | 0.24
19 | AGTTTCACGTGTGGAC | 0.37
20 | ATGTTCACGTGGTTTC | 0.32
21 | ATGTTCACGTGCTATT | 0.08
22 | CAGGGCACGTGGGATG | -0.2
23 | TTGGACACGTGGATGC | 0.06

Row | Sequence | relative binding free energy [kcal/mol]
24 | TTGGGCACGTGAGTAG | 0.09
25 | CGTGTCACGTGTTAAT | 0.06
26 | TCATGCACGTGGAATG | 0.12
27 | GGTGTCACGTGCTTAG | 0.12
28 | TAGATCACGTGTCAGT | 0.19
29 | GTGGGCACGTGGGAAG | -0.1
30 | TGTGCCACGTGTATGT | -0.19
31 | AGGGGCACGTGTGCGA | -0.14
32 | AATAACACGTGTGATG | 0.12
33 | AGTTGCACGTGGTCTT | 0.03
34 | ACTATCACGTGGTGTT | 0.13
35 | TGTAACACGTGTTGCG | 0.05
36 | TGAGCCACGTGAGGGG | 0.14
37 | CGGTTCACGTGGCGGT | 0.19
38 | ATGATCACGTGCTTGT | 0.07
39 | GTTAGCACGTGTGTAG | -0.04
40 | GTTGTCACGTGTTGTG | 0.25
41 | GATGACACGTGGCCGT | 0.18
42 | AAGGGCACGTGGAGCG | -0.25
43 | GGTTTCACGTGGTGAA | 0.32
44 | TTGCTCACGTGAATGT | 0.24
45 | TTACTCACGTGCTTTT | 0.2
46 | GGTGACACGTGGGGGG | -0.04

Row | Sequence | relative binding free energy [kcal/mol]
47 | CAGTTCACGTGATTGG | 0.42
48 | TTGTACACGTGAAAAT | 0.26
49 | TTTTTCACGTGTAGTT | 0.23
50 | GGATGCACGTGCTTGG | -0.09
51 | GAGTTCACGTGTCAGT | 0.4
52 | GTTTCCACGTGAGTTT | 0.44
53 | TGTGGCACGTGGATAT | -0.07
54 | TCTTGCACGTGTATTG | 0.04
55 | AGGCTCACGTGAGGGC | 0.36
56 | CTGTTCACGTGTTTTG | 0.15
57 | GTAATCACGTGGGTTT | 0.09
58 | TTGATCACGTGGGCGC | -0.07
59 | CTTGACACGTGATGGG | -0.01
60 | TTATGCACGTGTTATC | -0.2
61 | GGAATCACGTGTAGGG | 0.07
62 | ACGTTCACGTGGTGAT | 0.13
63 | ATGATCACGTGACTGT | 0.24
64 | CGTAACACGTGGTAAG | 0.02
65 | TATCTCACGTGTTTGG | 0.11
66 | GGGGGCACGTGCAGTC | -0.1
67 | AATTACACGTGGTGCG | -0.05
68 | TAGTTCACGTGGAGGC | 0.31
69 | GTCGGCACGTGGACGG | -0.05

Row | Sequence | relative binding free energy [kcal/mol]
70 | GAGGGCACGTGGGGTC | -0.1
71 | TGGCGCACGTGGTGTC | -0.29
72 | GGAGCCACGTGAGAGT | 0.2
73 | TGATACACGTGTATTT | 0.03
74 | TTGGTCACGTGTATTG | 0.13
75 | TCGGGCACGTGCGGGA | -0.09
76 | TGGCGCACGTGAGGCT | 0.06
77 | TCTCACACGTGTTTGT | 0.2
78 | TTAAGCACGTGGTTTC | -0.12
79 | TTGGACACGTGCGGAG | 0.07
80 | TGGACCACGTGTAGGT | 0.03
81 | CAGTGCACGTGAGTCT | 0.35
82 | AATCGCACGTGGAAGT | 0.25
83 | GTGCGCACGTGATGTT | 0.07
84 | TCTAGCACGTGTGCTG | 0.05
85 | TGGGGCACGTGAACGA | 0.03
86 | TTTATCACGTGGTGCC | 0.08
87 | CAGGACACGTGTGCGG | -0.08
88 | AGGGGCACGTGTTAGG | -0.17
89 | ATAGTCACGTGATTGT | 0.12
90 | TATGACACGTGGTTAG | -0.05
91 | CAAAACACGTGGTGGG | -0.1
92 | ATATTCACGTGTCGGT | 0.27

Row | Sequence | relative binding free energy [kcal/mol]
93 | AGTATCACGTGCTTGT | 0.02
94 | CATAGCACGTGGAGTG | -0.14
95 | TTGTACACGTGGGTTT | -0.13
96 | CTGTCCACGTGGTTTG | -0.08
97 | TGGTTCACGTGATTCG | 0.24
98 | TATGACACGTGACGGT | 0.01
99 | AGGGGCACGTGTGTTT | -0.06
100 | AGTGCCACGTGTTAAA | 0.01
101 | CGTAGCACGTGTGCGT | -0.01
102 | TGTAGCACGTGGCTGA | -0.12
103 | AGTGTCACGTGGCTGG | 0
104 | GTGCACACGTGCGGGT | 0.01
105 | TTTTTCACGTGCGGTG | 0.26
106 | AGTTCCACGTGGTGTG | 0.09
107 | AATGTCACGTGTGGAG | 0.18
108 | ATACTCACGTGTTGGT | 0.13
109 | AGCATCACGTGGGGGG | -0.02
110 | CAATTCACGTGTAGGG | 0.24
111 | GGCTACACGTGTTTTG | 0.09
112 | AGCGGCACGTGGAGGA | -0.1
113 | AGGGGCACGTGATTCT | -0.04
114 | TCGGCCACGTGGGGTT | -0.19
115 | GTGGCCACGTGGAAGG | -0.02
